# Reference: PubChem BioAssay (Tox21)
# Values joined by “and” are separate entries in the source; they are usually repeats but may differ in a detail not shown here. Equal values may be shown once. Inconclusive results, whose numbers are uncertain, are shown with a selection of clear calls. For part of these data: Potencies of inconclusive entries are doubtful fits and often do not repeat. More than one record can exist for a structure, and the calls need not agree. Active and inactive are the calls of the source. Unless noted, calls follow the shape of the dose curve; as a rule, active = well fitted curve in the direction sought with a large enough effect in the repeat runs; inconclusive = weak or mixed curves; inactive = no such curve, though single readings can be large; an effect the other way counts as inactive or inconclusive.
# Legend:
# [1] = qHTS assay for small molecules that induce genotoxicity in human embryonic kidney cells expressing luciferase-tagged ATAD5 (AID 651632); also: potency is read from the fitted curve at half-maximal effect; nearly all actives have a fitted effect of over 15% in size
# Summary of the method: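 HEK293T cells carrying a luciferase reporter tagged to ATAD5 were exposed to compound or DMSO vehicle for 16 hr at 37C, 5% CO2. Amplite was added, and after 30 min at room temperature luciferase activity was read as a marker of ATAD5 induction.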
# [2] = qHTS assay for small molecule agonists of the p53 signaling pathway - cell viability (AID 651633; calls by dose curve; also: potency is read from the fitted curve at half-maximal effect; nearly all actives have a fitted effect of over 30% in size)
# Summary of the method: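 Viability counter-read: CellTiter-Glo luminescence (30 min, room temperature) in the same p53RE-bla plates. These plates had been exposed to compounds for 16 h at 37 C.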
# [3] = qHTS assay for small molecule disruptors of the mitochondrial membrane potential - cell viability (AID 720634; calls by dose curve; also: potency is read from the fitted curve at half-maximal effect; nearly all actives have a fitted effect of over 20% in size)
# Summary of the method: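 HepG2 cells seeded overnight at 37 C, then exposed to compound or DMSO for 1 hr at 37 C, 5% CO2. m-MPI dye added, then CellTiter-Glo for 30 min at room temperature; viability read as ATP luminescence.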
# [4] = qHTS assay for small molecule disruptors of the mitochondrial membrane potential (AID 720635); settings: HepG2 mitochondrial membrane potential, Mito-MPS dye ratio; ratio activity, negative = MMP loss: at 83.2 µM (top of the series) unless noted; also: potency is read from the fitted curve at half-maximal effect
# Summary of the method: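 Mitochondrial membrane potential tracked with Mito-MPS dye, red aggregates (ex 540/em 590 nm) against green monomers (ex 490/em 535 nm). Compound treatment 1 hr at 37C, dye 30 min in HepG2.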
# [5] = qHTS assay for identifying genotoxic compounds that show differential cytotoxicity against isogenic chicken DT40 cell lines with known DNA damage response pathways - wild type cell line (AID 743012); settings: DT40 wild type chicken cells viability, CellTiter-Glo, 40 h; activity change, negative = cytotoxicity: at 68.4 µM (top of the series) unless noted; also: nearly all actives have a fitted effect of over 60% in size; also: potency is read from the fitted curve at half-maximal effect; as to activity change, negative = cytotoxicity: % is scaled to controls: 0 for no effect and ±100 for the full control effect
# Summary of the method: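 Parental DNA repair-proficient DT40 cells, 300 per well, were pre-incubated ~0.5 h at 37 C/5% CO2, pin-dosed with compounds in DMSO, then incubated 40 h. Viability was read as CellTiter-Glo luminescence after 30 min at room temperature.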
# [6] = qHTS assay for identifying genotoxic compounds that show differential cytotoxicity against isogenic chicken DT40 cell lines with known DNA damage response pathways - Rev3 mutant cell line (AID 743014); settings: chicken DT40 Rev3-/- viability, CellTiter-Glo, 40 h; activity, negative = cytotoxicity: at 68.4 µM (top of the series); also: potency is read from the fitted curve at half-maximal effect; nearly all actives have a fitted effect of over 55% in size
# [7] = qHTS assay for identifying genotoxic compounds that show differential cytotoxicity against isogenic chicken DT40 cell lines with known DNA damage response pathways - Rad54/Ku70 mutant cell line (AID 743015); settings: DT40 Rad54/Ku70 mutant viability, CellTiter-Glo, 40 h; activity change, negative = cytotoxicity: at 66.8 µM (top of the series); also: nearly all actives have a fitted effect of over 60% in size; also: potency is read from the fitted curve at half-maximal effect; as to activity change, negative = cytotoxicity: % is scaled to controls: 0 for no effect and ±100 for the full control effect
# [8] = qHTS assay to identify small molecule antagonists of the androgen receptor (AR) signaling pathway - cell viability counter screen (AID 743033; also: potency is read from the fitted curve at half-maximal effect; nearly all actives have a fitted effect of over 45% in size); settings: AR-bla HEK293 viability, CellTiter-Glo luminescence, 16 h; activity change, negative = cytotoxicity: at 58.5 µM (top of the series)
# [9] = molecular target: Glucocorticoid receptor (Homo sapiens) (UniProt P04150); assay: qHTS assay to identify small molecule antagonists of the glucocorticoid receptor (GR) signaling pathway (AID 720692; active = well fitted inhibition curve with a large enough effect in the signal ratio in the repeat runs, not every such curve was filed as active; inconclusive = weak or mixed curves, or effect the other way; inactive = no such curve, though single readings can be large or run the other way; the % refers to the signal ratio; also: potency is read from the fitted curve at half-maximal effect; as to activity change, negative = inhibition: % is scaled to controls: 0 for no effect and ±100 for the full control effect); settings: GR-bla HeLa, beta-lactamase FRET ratio, dexamethasone-stimulated, 18 h; activity change, negative = inhibition: at 58.5 µM (top of the series) unless noted
# Summary of the method: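 GR-bla HeLa cells (beta-lactamase reporter under glucocorticoid response element) were pre-plated 4 h at 37 C, treated with compounds plus 5 nM dexamethasone (final) for 18 h, then read by LiveBLAzer B/G FRET fluorescence after 2 h.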
# [10] = qHTS assay to identify small molecule antagonists of the glucocorticoid receptor (GR) signaling pathway - cell viability counter screen (AID 720693); settings: GR-bla HeLa viability, CellTiter-Glo luminescence, 18 h, with 5 nM dexamethasone present; viability change, negative = cytotoxic: at 58.5 µM (top of the series) unless noted; also: potency is read from the fitted curve at half-maximal effect; nearly all actives have a fitted effect of over 55% in size
# [11] = qHTS assay for small molecule agonists of the p53 signaling pathway (AID 651631; calls by dose curve; also: % is scaled to controls: 0 for no effect and ±100 for the full control effect; nearly all actives have a fitted effect of over 15% in size); settings: HCT-116 p53RE-bla reporter, beta-lactamase FRET ratio, 16 h; activation: at 73.3 µM (top of the series) unless noted
# Summary of the method: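 Agonist mode screen using a stably integrated beta-lactamase gene under p53 response elements in HCT-116 cells. Compound exposure lasts 16 h at 37 °C; fluorescence intensity is measured following 2 h FRET substrate loading.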
# [12] = qHTS assay for small molecules that induce genotoxicity in human embryonic kidney cells expressing luciferase-tagged ATAD5 - cell viability (AID 651634; calls by dose curve; also: potency is read from the fitted curve at half-maximal effect; nearly all actives have a fitted effect of over 25% in size)
# Summary of the method: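 HEK293T cells expressing luciferase-tagged ATAD5 were exposed to compound or DMSO for 15.5 hr at 37C, 5% CO2. Viability was then read as live-cell protease activity by CellTiter-Fluor fluorescence after 30 min at 37C.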
# [13] = molecular target: Glucocorticoid receptor (Homo sapiens) (UniProt P04150); assay: qHTS assay to identify small molecule agonists of the glucocorticoid receptor (GR) signaling pathway (AID 720691; active = well fitted activation curve with a large enough effect in the signal ratio in the repeat runs, not every such curve was filed as active; inconclusive = weak or mixed curves, or effect the other way; inactive = no such curve, though single readings can be large or run the other way; the % refers to the signal ratio; also: potency is read from the fitted curve at half-maximal effect; as to activation: % is scaled to controls: 0 for no effect and ±100 for the full control effect); settings: GR-bla HeLa, beta-lactamase reporter ratio, 18 h; activation: at 62.4 µM (top of the series) unless noted
# Summary of the method: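 GR-bla HeLa cells (beta-lactamase reporter under glucocorticoid response element) were plated 4 h at 37 C/5% CO2, given compounds in DMSO, and incubated 18 h at 37 C. LiveBLAzer B/G FRET substrate was added for 2 h at room temperature, then fluorescence intensity read.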
# Tags tell the direction and shape of the fitted curve or compound fluorescence and quenching.
# Sequence of UniProt P04150 (P04150 whole entry, looked up): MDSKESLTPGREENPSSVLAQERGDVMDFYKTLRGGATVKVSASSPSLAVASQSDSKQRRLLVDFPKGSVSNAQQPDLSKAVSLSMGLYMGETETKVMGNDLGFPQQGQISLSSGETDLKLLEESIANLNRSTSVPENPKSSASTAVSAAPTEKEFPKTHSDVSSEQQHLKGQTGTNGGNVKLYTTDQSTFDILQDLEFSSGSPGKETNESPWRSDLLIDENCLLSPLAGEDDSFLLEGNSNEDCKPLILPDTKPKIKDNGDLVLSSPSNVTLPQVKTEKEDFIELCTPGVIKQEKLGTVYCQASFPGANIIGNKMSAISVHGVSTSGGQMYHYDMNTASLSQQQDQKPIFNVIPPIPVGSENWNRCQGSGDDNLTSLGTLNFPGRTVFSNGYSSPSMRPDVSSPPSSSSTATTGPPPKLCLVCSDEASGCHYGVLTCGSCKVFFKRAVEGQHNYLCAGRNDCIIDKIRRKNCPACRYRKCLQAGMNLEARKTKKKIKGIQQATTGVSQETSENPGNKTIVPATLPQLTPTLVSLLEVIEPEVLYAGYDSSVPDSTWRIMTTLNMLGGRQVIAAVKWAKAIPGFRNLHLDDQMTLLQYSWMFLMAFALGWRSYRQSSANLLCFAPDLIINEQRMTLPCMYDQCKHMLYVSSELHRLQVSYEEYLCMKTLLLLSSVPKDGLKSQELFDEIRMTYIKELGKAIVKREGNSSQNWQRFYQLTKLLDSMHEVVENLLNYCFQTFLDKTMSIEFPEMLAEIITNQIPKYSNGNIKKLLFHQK
compound,measurement,setting,value
c1ccc(Nc2ccc3ccccc3c2)cc1,Potency,[1],"inconclusive: 34.2 µM [activator, partial curve]"
same,Potency,[2],"inconclusive: 54.2 µM [cytotoxic, single point]"
same,Potency,[3],active: 17.1 µM and inconclusive: 27.3 µM [cytotoxic]
same,Potency,[4],active: 8.58 µM and active: 13.7 µM
same,Potency,[5],"inconclusive: 76.5 µM [cytotoxic, single point] and inconclusive: 77 µM [cytotoxic, single point]"
same,Potency,[6],"inconclusive: 54.5 µM [cytotoxic, single point]"
same,Potency,[7],"active: 60.8 µM and inconclusive: 61.1 µM [cytotoxic, partial curve]"
same,Potency,[8],"inconclusive: 48.7 µM [cytotoxic, partial curve] and inconclusive: 34.7 µM [cytotoxic, partial curve]"
CCCCOC(=O)c1ccccc1C(=O)OCc1ccccc1,Potency,[1],"inconclusive: 77 µM [activator, partial curve, poor fit]"
same,Potency,[3],"inconclusive: 68.5 µM [cytotoxic, partial curve, poor fit]"
same,Potency,[4],"inconclusive: 68.5 µM [inhibitor, single point] and inconclusive: 15.4 µM [fluorescent, partial curve, poor fit]"
same,"activity change, negative = inhibition",[9],inconclusive: -31.6%
same,Potency,[10],"inconclusive: 61.6 µM [rising, single point]"
same,Potency,[6],inconclusive: 38.6 µM [cytotoxic]
same,Potency,[7],"inconclusive: 68.5 µM [cytotoxic, single point] and active: 51.4 µM"
CCc1cccc(C)c1N(C(=O)CCl)C(C)COC (stereo not drawn),Potency,[11],inactive
same,Potency,[6],active: 16.2 µM and active: 12.2 µM
O=C(CCl)c1ccc(Cl)cc1Cl,Potency,[1],"inconclusive: 60.8 µM [activator, single point]"
same,Potency,[2],active: 5.96 µM and active: 9.69 µM
same,Potency,[12],"inconclusive: 6.68 µM [falling, partial curve, poor fit] and inconclusive: 24.3 µM [falling, partial curve, poor fit]"
same,Potency,[4],active: 17.1 µM
same,Potency,[13],"inconclusive: 61.6 µM [fluorescent, single point]"
same,activation,[13],inconclusive: -21.8%
same,Potency,[9],"inconclusive: 15.1 µM [cytotoxic, partial curve] and inconclusive: 21.9 µM [cytotoxic] and inconclusive: 6.89 µM [inhibitor, full curve]"
same,Potency,[5],"inconclusive: 27.2 µM [cytotoxic, single point]"
same,Potency,[7],"inconclusive: 24.2 µM [cytotoxic, single point]"
same,Potency,[8],"inconclusive: 21.8 µM [cytotoxic, partial curve, poor fit]"
Cc1cc(-c2ccc(N)c(C)c2)ccc1N,Potency,[1],"inconclusive: 67.6 µM [activator, partial curve, poor fit] and inconclusive: 49.1 µM [activator, partial curve] and inconclusive: 76.7 µM [activator, partial curve, poor fit]"
same,Potency,[6],inconclusive: 61.8 µM [cytotoxic] and active: 34.3 µM
same,Potency,[7],"inconclusive: 69.4 µM [cytotoxic, single point]"
CC(=O)Nc1ccc2c(c1)Cc1ccccc1-2,Potency,[1],"inconclusive: 34.9 µM [activator, partial curve, poor fit]"
same,Potency,[4],active: 31.1 µM
same,activation,[13],inconclusive: -17% [at 79.2 µM]
same,Potency,[9],"inconclusive: 39.5 µM [inhibitor, partial curve]"
same,Potency,[5],"inconclusive: 62.1 µM [cytotoxic, single point]"
same,Potency,[6],"inconclusive: 31.1 µM [cytotoxic, partial curve, poor fit]"
CC(C)(c1ccc(OCC2CO2)cc1)c1ccc(OCC2CO2)cc1 (stereo not drawn),Potency,[1],"inconclusive: 69.5 µM [activator, partial curve, poor fit]"
same,Potency,[9],inconclusive: 62.5 µM [cytotoxic] and active: 49 µM
same,Potency,[10],"inconclusive: 55.7 µM [cytotoxic, single point]"
same,Potency,[5],"inconclusive: 69.5 µM [cytotoxic, single point]"
COCC(C)N(C(=O)CCl)c1c(C)csc1C (stereo not drawn),Potency,[11],inactive
same,Potency,[8],"inconclusive: 54.9 µM [cytotoxic, single point]"
C(=NC1CCCCC1)=NC1CCCCC1,Potency,[2],active: 30.8 µM and active: 17.2 µM
same,Potency,[12],active: 30.8 µM and active: 43.3 µM
same,Potency,[3],"active: 5.48 µM and inconclusive: 4.33 µM [cytotoxic, partial curve, poor fit]"
same,Potency,[4],active: 138 nM and active: 217 nM
same,Potency,[5],inactive and active: 15.4 µM
same,Potency,[7],inactive and active: 3.06 µM
